Whole data set: some 33,000 sequences, median “E-score (-0.5 to 0.5)” near -0.056, cut for the highest 2% near 0.38. Some of the results follow.
Biological target: Stb4 (UniProt P50104)
Assay: PBM E-score (8-mer binding enrichment) (E-score (-0.5 to 0.5)); higher = stronger / more preferred TF binding; most listed sequences are background and not binding sites
Conditions: protein concentration: 200 nM; construct: GST-DNA-binding domain
Method in brief: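 Using PURExpress in vitro transcription/translation, GST-tagged yeast transcription factors were made in full-length or DNA-binding-domain form. These were applied at about 100-200 nM to double-stranded universal all-10-mer Agilent arrays, and bound protein was detected with fluorescent anti-GST. Scans were normalised with masliner before the Universal PBM Analysis Suite assigned E-scores to ungapped eight-base words pooled with their reverse complements.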

Sequence | PBM E-score
ACCGATAA | 0.26
AGCCCTTA | -0.203
GTCGTAAC | -0.0423
CCGTGTAG | 0.00178
GCGTAAGC | -0.121
CAGCTATA | -0.148
CGCTAAGA | -0.0541
ATGCATAG | -0.114
CTCAGTCC | -0.169
CAACCATA | -0.251
CGCGTGCA | -0.0517
CGAATCAA | 0.0967
GATGATAC | 0.0686
TACATACA | -0.138
ATAAACGG | 0.1
AGAAAAGG | -0.0928
GCTAATAA | 0.0221
ACCGTAGG | -0.189
CACCCCTG | -0.131
AATCGTCA | -0.181
GCCCGCGC | 0.135
CAGGCAGG | -0.156
AATCGTGA | -0.0883
CGGCGACG | 0.131
CGCGTTAA | 0.0123

Sequence | PBM E-score
CCTATCCG | 0.391
GGGAGATA | -0.00607
AGTATGAT | -0.121
TCATCGAA | -0.153
CCGATCGC | 0.167
CGAACACA | 0.0274
AGAGAATC | -0.102
GGCGAGCA | -0.0439
GTCTAAAA | -0.0585
CCGGTGAG | 0.0591
ACGTTTTG | -0.297
CGCGGTTA | 0.152
AAAGGTGA | -0.25
GGATTGCA | -0.021
GACGTATA | -0.0864
ACGTCAGT | -0.159
CACGCCAA | -0.0394
ATAAAAGC | -0.0806
GATGAGGC | -0.0304
AGTGGTTC | 0.0362
TTACCAAA | -0.114
CCTGTACG | -0.085
AGTGTCGG | 0.331
CACGTCGG | 0.327
CAATCGGA | 0.374

Sequence | PBM E-score
CCATCGTC | -0.0841
CACTGGTA | -0.276
ATCACTAG | -0.259
GGTACACC | -0.0473
AATAGAAT | -0.19
GAGTCCAA | -0.067
GTACGCAC | -0.18
CACCGGTA | 0.138
TATTCGAA | -0.2
CAGCTGTA | -0.16
CAGAAAAC | -0.197
ACGGCTCG | 0.318
GTCAACAC | 0.0159
AATGTACT | -0.0625
CTAGTCCC | 0.0489
CAACAGAC | -0.0377
TGACGGCA | 0.154
CTGACTTA | -0.0075
ACTTCTCT | -0.231
AATTGCCC | 0.0563
CTTACATC | 0.0186
TACCGTGA | 0.0433
GAGACGGA | 0.219
CTTGAGTC | 0.0303
ATAGAGCG | 0.00392

Sequence | PBM E-score
ATGGTGCA | -0.141
ACTGTCAA | -0.177
ATCGCCCG | 0.152
ACCGGTCA | 0.00818
CCAGAACG | -0.0798
AGCAGGCT | -0.0373
GGCTTCCA | -0.112
ATGATAAC | -0.118
AGGTATGA | -0.0676
ATGCAACG | -0.0843
ACAACGTC | -0.00293
GACGGTAC | 0.148
CAGATCTA | -0.242
ATCACATA | -0.118
CACCATGA | 0.0556
CACGGGTC | 0.165
CGCCCCTC | 0.0786
GGATTCCA | 0.13
GATGAGCC | 0.132
CCCTAGCG | -0.328
ACAATCAA | -0.0127
GACGGAGC | 0.164
AACGACAA | -0.0274
AAATGATG | -0.0263
AGATTATC | 0.0664

Sequence | PBM E-score
ATTACCGA | 0.378
AGTCCACG | -0.182
CACATTCG | 0.0659
ATCGGTGA | 0.0519
CCGTTATC | 0.218
AGCGAAGG | 0.0247
CTCCCTAA | -0.142
AATGCTCA | -0.231
CGCGAACA | -0.187
CTTTCCGA | 0.463
ATGACCGC | -0.144
ACTGATCA | -0.23
AATTGCTC | -0.0642
ATAGATTA | -0.0537
GCCCGAAA | 0.276
CCGCTTTA | 0.138
GGGTGTTA | 0.125
AGACGCTG | -0.162
GCCGTCCA | 0.0408
CATCGCAG | -0.235
AACGAATT | -0.141
GAAGATTA | 0.102
TCATCACA | -0.354
ACACAGCT | -0.159
TAGGTGCA | -0.153

Sequence | PBM E-score
CCAACAAA | -0.103
GAAGAACA | 0.216
ACAGGAAG | -0.15
AAACCTAA | 0.0559
ACGCACGG | 0.237
CAGGTGCC | -0.0121
GACTCATC | -0.171
ATTCGGTA | 0.36
AGATGGAC | 0.0592
GTCGATAA | -0.0907
CAACTTGA | -0.0653
ATGGGGGA | -0.135
AAAGAAGT | -0.0721
ACTGAGCA | -0.219
ACGAATGG | -0.0432
AATGCGCT | -0.284
CGCAACCA | 0.0707
CAACGCTA | -0.134
CTTTGGGC | 0.135
GCTAACCC | -0.078
CCCAGCAA | -0.126
GTCAAGGA | -0.0328
ATAGCTAG | -0.105
CGAGAGGA | 0.074
CGACGGTA | 0.115

Sequence | PBM E-score
CATTGCAG | -0.264
CCAGAGAC | -0.243
AGTTGACC | 0.161
GATTTCTA | 0.192
AATTACAT | -0.0483
CGGGACAA | 0.31
CATATGGC | -0.144
ACATGAAA | -0.234
CAGATGGC | -0.119
GGTCACTA | 0.0182
GTTGGTGA | -0.146
ATTTGAGG | -0.0518
GATGTAGA | 0.0669
ATTCGGAC | 0.373
GGCACCAA | 0.0806
ATCGGTCG | 0.164
ACTAATAT | -0.0215
AACGCAAC | -0.0679
GTAAATGA | 0.0685
AAAGCTCG | 0.12
GGTCTACA | -0.11
CGTGCAGA | -0.12

Reference: the supplement of paper PMC3334620
